# Source: PubChem BioAssay AID1347165 (National Center for Advancing Translational Sciences (NCATS), 2019)
# About 5,700 (2.6%) of roughly 220,000 compounds were called active. The inconclusive results got no clear call from the source; some entries with a clear call stand among them for comparison. Calls come from the whole dose curve; as a rule, active = well fitted inhibition curve with a large enough effect; inconclusive = small, poorly fitted or top-dose-only effect; inactive = no such curve, though single readings can be large or run the other way. Potencies of inconclusive entries are doubtful fits and often do not repeat.
# Target: Lysine-specific demethylase 5B (Homo sapiens) (UniProt Q9UGL1)
# Assay: Primary screen for KDM5B Histone Demethylases FDH-coupled qHTS; note: nearly all actives have a fitted effect of over 70% in size
# Conditions: FDH-coupled NADH fluorescence (FDH is formaldehyde dehydrogenase); series mostly up to 57.7 µM
# Procedure, shortened: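 Measured: NADH fluorescence change, 30 min, RT. System: KDM5BΔAP 200 nM final, H3K4me3 peptide, α-KG, Fe(II), ascorbate, NAD⁺ plus FDH, pH 7.5 HEPES. Compounds: titrated, 10 min pre-incubation with enzyme.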
# Potency is the fitted concentration of half-maximal effect; tags give direction and shape of the fitted curve.
# UniProt Q9UGL1, sequence (Q9UGL1 whole entry, looked up): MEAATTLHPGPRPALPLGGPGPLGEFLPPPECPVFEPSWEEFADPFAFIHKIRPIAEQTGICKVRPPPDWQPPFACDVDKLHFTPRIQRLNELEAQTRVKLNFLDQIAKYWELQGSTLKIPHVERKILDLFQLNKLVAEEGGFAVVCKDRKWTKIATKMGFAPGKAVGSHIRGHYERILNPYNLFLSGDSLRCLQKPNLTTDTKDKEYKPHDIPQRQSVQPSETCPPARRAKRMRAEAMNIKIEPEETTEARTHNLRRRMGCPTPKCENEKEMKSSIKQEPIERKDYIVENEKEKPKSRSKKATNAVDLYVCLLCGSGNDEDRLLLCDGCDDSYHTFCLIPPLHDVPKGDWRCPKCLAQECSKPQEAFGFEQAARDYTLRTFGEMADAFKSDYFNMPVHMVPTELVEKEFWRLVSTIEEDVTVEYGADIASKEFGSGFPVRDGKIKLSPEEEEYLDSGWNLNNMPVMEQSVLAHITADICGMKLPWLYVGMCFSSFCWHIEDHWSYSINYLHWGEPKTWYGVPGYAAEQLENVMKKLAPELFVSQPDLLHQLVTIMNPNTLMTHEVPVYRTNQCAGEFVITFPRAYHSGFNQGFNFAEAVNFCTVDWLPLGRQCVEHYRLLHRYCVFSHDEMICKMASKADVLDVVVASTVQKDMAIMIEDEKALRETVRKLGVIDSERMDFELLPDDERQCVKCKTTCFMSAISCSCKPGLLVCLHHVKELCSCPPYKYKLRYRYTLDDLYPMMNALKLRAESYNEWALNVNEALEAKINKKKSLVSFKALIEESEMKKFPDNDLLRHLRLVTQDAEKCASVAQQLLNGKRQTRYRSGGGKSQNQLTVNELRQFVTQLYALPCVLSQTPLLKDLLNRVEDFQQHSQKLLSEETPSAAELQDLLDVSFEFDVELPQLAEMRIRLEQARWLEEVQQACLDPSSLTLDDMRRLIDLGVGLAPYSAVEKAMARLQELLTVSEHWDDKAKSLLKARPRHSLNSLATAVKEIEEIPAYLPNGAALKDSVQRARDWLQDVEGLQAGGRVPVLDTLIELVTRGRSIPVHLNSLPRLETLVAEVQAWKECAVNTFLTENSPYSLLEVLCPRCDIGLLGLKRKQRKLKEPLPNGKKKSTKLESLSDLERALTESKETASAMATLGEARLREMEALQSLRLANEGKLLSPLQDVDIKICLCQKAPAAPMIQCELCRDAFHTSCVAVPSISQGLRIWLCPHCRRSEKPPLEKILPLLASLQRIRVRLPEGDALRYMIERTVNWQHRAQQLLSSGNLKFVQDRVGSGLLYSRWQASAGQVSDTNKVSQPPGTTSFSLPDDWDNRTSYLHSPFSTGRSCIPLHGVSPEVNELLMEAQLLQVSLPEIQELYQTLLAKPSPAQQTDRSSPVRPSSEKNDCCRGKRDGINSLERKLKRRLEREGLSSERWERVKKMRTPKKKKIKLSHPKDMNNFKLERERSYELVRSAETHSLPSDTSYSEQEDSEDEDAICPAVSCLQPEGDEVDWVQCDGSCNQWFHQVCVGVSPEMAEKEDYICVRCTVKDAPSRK
row,Structure (SMILES),Potency
1,CN(C)C(=O)c1nc(-c2ccc(Cl)nc2)c2cnccn12,inactive
2,CCC(=O)NCc1ccc(-c2nc3ccccc3s2)cc1,"inconclusive: 39.8 µM [inhibitor, single point]"
3,O=S(=O)(NCc1csc(-c2cccs2)n1)c1cccs1,"inconclusive: 39.8 µM [inhibitor, partial curve, poor fit]"
4,COc1ccc(S(=O)(=O)c2cc3ccccc3oc2=O)cc1,inactive
5,CN(Cc1cccs1)C(=O)COc1cc2oc(=O)cc(-c3ccccc3)c2cc1Cl,"inconclusive: 17.8 µM [inhibitor, partial curve, poor fit]"
6,Cc1ccc(C)c(C(=O)N[C@@H]2CN(Cc3ccccn3)C[C@H]2CN(C)C)c1,"inconclusive: 28.2 µM [inhibitor, partial curve, poor fit]"
7,CCCN1CCN(c2cc(C(=O)O)c3cc(NC(=O)C(C)C)ccc3n2)CC1,"inconclusive: 25.1 µM [inhibitor, partial curve, poor fit]"
8,CC(NC(=O)c1ccc2c(c1)NC(=O)CS2)c1ccc2c(c1)OCCO2 (centres undefined),inactive
9,c1cncc(-c2nc(NCc3ccc4c(c3)OCO4)c3ccccc3n2)c1,"inconclusive: 35.5 µM [inhibitor, partial curve, poor fit]"
10,Cc1ccc(NC(=O)CCn2c(=O)c3cccn3c3ccccc32)cc1Cl,"inconclusive: 28.2 µM [inhibitor, single point]"
11,O=C(CCc1ncc(-c2ccc(F)cc2)o1)NC1CCN(Cc2ccccc2)C1 (centres undefined),inactive
12,COc1ccc(N2CC3CCC(C2)N3C(C)=O)cc1,"inconclusive: 89.1 µM [inhibitor, partial curve]"
13,COc1ccc(OC)c2[nH]c(C(=O)NC(C)C(=O)Nc3nc(C)cs3)cc12 (centres undefined),inactive
14,Cc1ccc(NC(=O)CNCCCN2CCOCC2)cc1S(=O)(=O)N1CCCCC1,"inconclusive: 28.2 µM [inhibitor, partial curve, poor fit]"
15,O=C(Cn1nc(C(=O)O)c2ccccc2c1=O)NCc1cccc(Cl)c1,inactive
16,Cc1noc(C)c1-c1cc(-c2cccnc2)cn2cncc12,active: 35.5 µM
17,COc1ccc(NC(=O)c2ccc3c(c2)N(C)C2CCCCN2C3=O)c(OC)c1 (centres undefined),"inconclusive: 20 µM [inhibitor, partial curve, poor fit]"
18,O=C(Cn1nc(-c2ccccc2)c2ccccc2c1=O)N1CCC(Cc2ccccc2)CC1,inactive
19,O=C(c1ccc(F)cc1)N1C[C@@H]2C[C@H](C1)c1ccc(NS(=O)(=O)c3cccc(F)c3)c(=O)n1C2,"inconclusive: 20 µM [inhibitor, partial curve, poor fit]"
